The record followed here is publication PMC10668032.

Some of the results follow. At the low end of the ranking, values are background and their order means little.

The target of the assay is SIX1-Q177R homeodomain (UniProt Q15475). Nature of the assay: universal protein binding microarray. The conditions noted are these: Universal all-10-mer PBM (8x60K, AMADID 030236), 300 nM GST-tagged protein, Alexa Fluor 488 anti-GST; buffer, salt, pH and temperature not stated; high values mean tight binding; most listed sequences are background and not binding sites; double strand, one strand shown.
For CAACTCAC, the binding signal is 0.104 E-score.

CTTGGGCC: the binding signal was -0.283 E-score. Consider AGCAGCCT, for which the binding signal was 0.0598 E-score. With GAGGAAAC the figure was -0.169 E-score; with ATGGTACG, -0.0163 E-score; with ACGGTATC, 0.298 E-score. ATGACACC: the binding signal stood at 0.492 E-score. On to CGGAATTC, for which the binding signal is -0.093 E-score. With ACCGTTAT the figure was -0.0124 E-score; with GGTCGTGA, 0.0821 E-score; with CCTGCGCG, 0.0458 E-score. ACTCGGAC: the binding signal amounted to 0.179 E-score. Turning to AACATGAG, the binding signal was -0.00683 E-score. To CAACGGTG belongs 0.337 E-score; to AGATCGAG, -0.154 E-score.

On to AAGCGCAA, for which the binding signal was -0.152 E-score. On to AGACTTAC, for which the binding signal worked out at 0.0491 E-score. To AGAGGTGC belongs 0.19 E-score; to AGGCCCCG, -0.112 E-score.

TGAGCCAA: the binding signal was -0.312 E-score. As for CTGGCTTA, the binding signal is -0.13 E-score. Take AGTGCCCC: the binding signal was -0.0201 E-score. With AAAGGTTA the figure was -0.0369 E-score; with GTCCAGAA, -0.0778 E-score. To AACGCCAT belongs 0.0407 E-score. With ACTTACCC the figure was 0.186 E-score; with AGACCGCG, -0.0239 E-score. With ACGACACG, the binding signal is 0.426 E-score. With ATTTTTAC the figure was -0.14 E-score; with CCTTCCGA, 0.0537 E-score. To AACCTAGT belongs 0.0884 E-score. With CTATAGGA the figure was 0.031 E-score; with AATTAATT, -0.363 E-score; with CCGGTAAG, -0.173 E-score. Consider ACCTACGG, for which the binding signal was 0.0531 E-score. To GCTAACCC belongs 0.186 E-score. Regarding CCGTCCGC, the binding signal was -0.1 E-score. With CACCCCTA, the binding signal was 0.283 E-score.

For the sequence CGGAAGGC, the binding signal was -0.179 E-score.

As to CCATGCAG, the binding signal is -0.0515 E-score. With CAATAGGA the figure was -0.0533 E-score. On to CCAGCCAA, for which the binding signal was -0.216 E-score. To TAAGAGAA belongs -0.244 E-score. On to CGTTAGAG, for which the binding signal was -0.17 E-score. With AATGCGTG the figure was 0.0365 E-score; with GTACCCAC, 0.069 E-score. To TAATTAGA belongs -0.179 E-score; to ATCACCAC, -0.000695 E-score. As for GGTGGGGA, the binding signal stood at 0.11 E-score.

Regarding ACCTTTCG, the binding signal was -0.00999 E-score. Turning to CGGTCACA, the binding signal came out at 0.142 E-score. To CTCTCGTC belongs -0.171 E-score; to AAGCGGCA, -0.0991 E-score; to CGCATAAC, 0.0341 E-score. With TAGTAATA the figure was 0.0394 E-score; with ATATTACC, 0.0275 E-score. To AGTCTTAT belongs -0.115 E-score; to CTTTCGTC, -0.173 E-score. As to CGTCTAAA, the binding signal is -0.151 E-score. To GGAAATGA belongs -0.105 E-score. To AACTTAAG belongs -0.162 E-score.

Turning to ATTACAGC, the binding signal was -0.135 E-score. GCGAGCCA: the binding signal is -0.273 E-score. For AGACCACA, the binding signal was -0.0501 E-score. Take GTGTGTAA: the binding signal was 0.337 E-score. With AGGCGGCC the figure was -0.286 E-score. With AGCGCGTC the figure was -0.0896 E-score. On to CCTAGATA, for which the binding signal is -0.0444 E-score. Regarding CGGCGGTC, the binding signal is -0.208 E-score. Regarding CGGAAAGC, the binding signal was -0.139 E-score.

With CGTAGGGA, the binding signal worked out at 0.0632 E-score. To CGACAGTA belongs -0.0537 E-score; to CTTTACTC, 0.00717 E-score. With CAGGCCAG the figure was 0.0565 E-score; with ACCCAGGG, 0.201 E-score. For the sequence CTTGCGTC, the binding signal was -0.218 E-score. With ATGCACAT the figure was -0.125 E-score. To CACGGCTG belongs 0.201 E-score; to CCCTTAAC, 0.152 E-score.

Regarding AAGGAAGT, the binding signal was -0.104 E-score. To TAATTGCA belongs -0.0474 E-score; to CTTCACCC, -0.0107 E-score.

Consider CATGCTCC, for which the binding signal was -0.255 E-score.

In the case of TATGCCCA, the binding signal was determined as 0.0138 E-score.

With AATTAGAG, the binding signal was -0.162 E-score. In the case of ATGGGTAC, the binding signal was determined as 0.135 E-score. With GGGGGATA the figure was 0.2 E-score. For the sequence CCACTAAG, the binding signal is -0.0346 E-score. To GCCAGGCC belongs -0.144 E-score.

Consider CTGACGGA, for which the binding signal is -0.15 E-score. Take CAGCAGTA: the binding signal was -0.105 E-score. As for GGAGCTCC, the binding signal was -0.218 E-score. For ATTGTGGG, the binding signal was found to be 0.0619 E-score. With CTGTTATC the figure was -0.207 E-score. For the sequence CTTTGTTC, the binding signal was -0.245 E-score. With CACTGTAG the figure was 0.116 E-score. To CAGCCTTA belongs -0.174 E-score.

Consider ACATTCAG, for which the binding signal is -0.204 E-score. With GTCCTGGA the figure was -0.0908 E-score; with ACATGGCA, -0.134 E-score. With AACAGCTA the figure was -0.0895 E-score; with AAGTGGTC, -0.232 E-score; with CGTTAAAA, -0.291 E-score.

In the case of ACGGTGGC, the binding signal is -0.111 E-score. Turning to AGAGGCGA, the binding signal was -0.258 E-score.

Consider ATTTTGTC, for which the binding signal is -0.0516 E-score.

CAGGCTCG: the binding signal was -0.0369 E-score. With CAGAGTTA the figure was 0.06 E-score. With AGGGACCT the figure was -0.0258 E-score; with CCTGCACG, 0.138 E-score; with ATCGTTGG, 0.00283 E-score. With CAATACTA the figure was -0.128 E-score. As to GTAGTACA, the binding signal stood at 0.277 E-score. To ATCCCGGA belongs 0.0812 E-score. With TAGCAGCA the figure was -0.097 E-score. On to TCTCGACA, for which the binding signal was 0.0685 E-score. With AAGAACCA the figure was -0.262 E-score; with CAGGTTGC, -0.0527 E-score.

For the sequence AAGTGGCC, the binding signal is -0.25 E-score. With AGACACGG, the binding signal turned out to be 0.377 E-score. As to CCAATATA, the binding signal is -0.235 E-score. For ATAAGCGG, the binding signal is -0.271 E-score.

Consider CGATCGAC, for which the binding signal is 0.0764 E-score. With ATGCATCG the figure was 0.0304 E-score; with CCCACTCC, 0.159 E-score. AAGTGAAT: the binding signal was -0.253 E-score.

Turning to GCTGAGAA, the binding signal is -0.138 E-score. To ATTGGGGG belongs 0.145 E-score; to AATACTCA, -0.138 E-score. With TGCCAACA the figure was -0.0249 E-score; with CAAGGCCA, -0.247 E-score; with ATCCGGGG, 0.232 E-score. With GCCCTCTA the figure was -0.106 E-score; with CCATTGGA, -0.0188 E-score; with CTTTGTTA, -0.0715 E-score. AGGTGGAG: the binding signal is -0.0142 E-score. To GATAATGC belongs -0.0178 E-score; to GACTCAGA, -0.282 E-score; to AGCTAGAA, -0.102 E-score.

With AGTCCCTG, the binding signal is -0.194 E-score. With ACAACATA the figure was -0.0915 E-score; with GTTTGGAA, -0.0805 E-score. As to CGGCTGTC, the binding signal is -0.11 E-score. With ATTATGTC the figure was -0.0365 E-score. With CGTACAAC the figure was 0.0264 E-score; with GAAGACTA, -0.147 E-score; with ATATGTTG, -0.158 E-score. Turning to CTAAGACC, the binding signal was -0.0715 E-score. With CTATTAAG the figure was -0.0518 E-score; with AGCCAGAG, -0.21 E-score; with AGTAATAA, 0.0306 E-score. On to ATAGTGCA, for which the binding signal was -0.0164 E-score. On to ACTCCTAG, for which the binding signal was 0.199 E-score. To CCCATGCC belongs -0.0619 E-score; to CACTTTAC, 0.221 E-score. For CTTATGGC, the binding signal is -0.16 E-score. Consider AGATTGTG, for which the binding signal is -0.167 E-score. With CATGCTAC the figure was 0.0461 E-score. GACAACTC: the binding signal is -0.0251 E-score. On to TCACACCA, for which the binding signal turned out to be 0.434 E-score. Take AACTTCAC: the binding signal was -0.0148 E-score. CTTACGTC: the binding signal was -0.22 E-score. Consider ATTCTTTA, for which the binding signal was -0.0688 E-score. To GTCCTAGA belongs 0.00245 E-score. On to AGTCCCGA, for which the binding signal was -0.0857 E-score. To ATATTAGC belongs -0.0883 E-score. To CCTAGGGC belongs -0.171 E-score. With ATCCTTGC the figure was -0.0474 E-score; with GTTCAACA, 0.126 E-score; with GTCATGAC, 0.0445 E-score. On to TATCTGCA, for which the binding signal is -0.00395 E-score. To CATCAGTA belongs -0.099 E-score.
